Laboratory results reported in paper PMC6919601, “Identification of Plasmodium dipeptidyl aminopeptidase allosteric inhibitors by high throughput screening” (PLoS ONE, 2019).
“And” between values parts separate entries of the source, which are not always exact repeats. Identical values can stand only once. The campaign covered roughly 110,000 compounds. About 230 (0.21%) showed an effect of 50% or more. Some of the results follow.

Biological target: DPAP1 (Plasmodium falciparum, UniProt Q8IIJ9)
Sequence (Q8IIJ9 whole entry, looked up): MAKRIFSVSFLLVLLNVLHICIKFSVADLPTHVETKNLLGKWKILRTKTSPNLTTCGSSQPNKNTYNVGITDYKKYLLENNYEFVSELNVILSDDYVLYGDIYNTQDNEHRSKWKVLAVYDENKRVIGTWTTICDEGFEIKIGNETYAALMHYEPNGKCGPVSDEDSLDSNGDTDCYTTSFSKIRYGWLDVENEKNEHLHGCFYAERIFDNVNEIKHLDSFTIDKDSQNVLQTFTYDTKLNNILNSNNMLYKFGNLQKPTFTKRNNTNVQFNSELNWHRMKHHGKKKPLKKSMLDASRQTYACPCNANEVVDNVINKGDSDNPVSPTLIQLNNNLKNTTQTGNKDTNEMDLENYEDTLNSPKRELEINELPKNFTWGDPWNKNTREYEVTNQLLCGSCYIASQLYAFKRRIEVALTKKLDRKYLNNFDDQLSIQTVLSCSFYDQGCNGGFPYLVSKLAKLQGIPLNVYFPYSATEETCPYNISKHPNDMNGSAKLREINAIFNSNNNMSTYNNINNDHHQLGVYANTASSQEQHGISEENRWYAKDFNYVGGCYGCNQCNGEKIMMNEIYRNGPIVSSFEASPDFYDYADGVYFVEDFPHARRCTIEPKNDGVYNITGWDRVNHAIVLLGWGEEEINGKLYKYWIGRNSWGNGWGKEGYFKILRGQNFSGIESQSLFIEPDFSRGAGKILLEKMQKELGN
Test: primary screen, percent inhibition; read by cleavage of a fluorogenic dipeptide substrate; higher = more effect of the substance
Set-up: species or system P. falciparum D10 trophozoite lysates; single well
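Note: 30 min substrate incubation versus DMSO and 10 µM JCP410 controls.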

SMILES | % Inhibition @ 10 uM
CC(C)C(C(=O)NCCN(C)C)c1ccccc1 (centres unmarked) | -13%
Cc1ccc(S(=O)(=O)NC(C)C2C3CC4CC(C3)CC2C4)c(C)c1 (centres unmarked) | -3.75%
COC(=O)c1[nH]c2cc(OC)ccc2c1NS(=O)(=O)c1ccc2nc(O)sc2c1 | -1.24%
Cc1cccc(-c2nnc3sc(NC(=O)C(C)C)nn23)c1 | 1.07%
CN1CCN(C(=O)Cn2ncc3c4ccccc4n(Cc4ccccc4)c3c2=O)CC1 | 4.95%
CCCCc1c(C)nc2ccc(OC)cc2c1S | -0.267%
CCN(CC)CCCNC(=O)c1ccc2c(c1)sc1nc(-c3ccc(OC)cc3)cn12 | 3.27%
O=C(C1CCCC1)N1CCN(c2ccc(F)cc2)CC1 | 5.31%
COc1cccc(C2C(C(=O)Nc3cccnc3)=C(C)Nc3nc(-c4cccs4)nn32)c1 (centres unmarked) | -7.96%
CC1(C)CC(=O)c2cc(OCC(=O)NCC3CCCO3)ccc2O1 (centres unmarked) | 1.37%
CN(C)/C=C1\C(=O)c2ccccc2OC1C1CCCCC1 (centres unmarked) | -8.92%
CCN(CCN(C)C)Cc1ccc(F)c(F)c1 | 3.04%
Cc1ccc(C)c(NC(=O)CSc2ccccn2)c1 | 1.01%
Cc1nc2ccc(S(=O)(=O)NCC(=O)N3CCC(N4CCCCC4)CC3)cc2s1 | 2.57%
COc1ccc(-c2noc(CN(C(=O)C(C)Oc3ccc(C)cc3)C(C)C)n2)cc1OC (centres unmarked) | 0.558%
Cn1c(C(=O)NCCCN2CCCC2=O)cc2sccc21 | -6.91%
O=C(O)c1ccc(/C=C/C(=O)c2ccc3c(c2)OCCO3)cc1 | 1.84% and 3.43%
CCOC(=O)N1CCC(NC(=O)c2oc(=O)c3ccccc3c2-c2ccccc2)CC1 | -3.35%
CCOC(=O)C1=C(C)N=c2s/c(=C/c3ccc4c(c3)OCO4)c(=O)n2C1c1cccs1 (centres unmarked) | 4.54%
OCCN1CCN(C/C=C/c2ccccc2)CC1 | -3.57%
Cc1ccc(NC(=O)c2ccc(N3C(=O)c4ccc(C(=O)O)cc4C3=O)cc2)cc1 | 5.64%
COc1ccc(/C=C2/N=C(c3cc(Cl)ccc3OC)OC2=O)cc1 | -2.27%
CC1CCCC(N2CCN(C/C=C/c3ccccc3)CC2)C1 (centres unmarked) | -0.414%
O=C(Nc1cc([N+](=O)[O-])ccc1Cl)c1cccc([N+](=O)[O-])c1 | 12.2%
CCCC1=NC(C)(C)Cc2cc(OC)c(OC)cc21 | 23.4%

SMILES | % Inhibition @ 10 uM
COc1ccc(-c2cc(C)no2)cc1S(=O)(=O)NCCCc1ccco1 | -0.342%
COc1ccc(CC(=O)Nc2ccc(N(C)C(C)=O)cc2)cc1 | 2.27%
CCOC(=O)C1=CN(C)C=C(C(=O)OCC)C1c1cc(Br)c(OCC)c(OC)c1 | -3.23%
O=C1CC(Nc2ccc(F)cc2)C(=O)N1c1ccc(Cl)c(Cl)c1 (centres unmarked) | -13.5%
COc1ccc(/C=C/C(=O)c2ccc(Cl)c(Cl)c2)c(OC)c1 | 4.18%
O=C(Nc1cccc(F)c1)c1ccc(Cl)cc1 | -1.92%
COC(=O)/C(=C/c1ccco1)NC(=O)c1ccc(OCC(C)C)cc1 | -0.0626%
COc1cccc(/C=C2\SC(N3CCN(C)CC3)=NC2=O)c1OC | 5.3%
OCC1CCCN1Cc1ccc(F)cc1 (centres unmarked) | -2.34%
CCn1cc(C(=O)Nc2c(C)nn(Cc3ccccc3Cl)c2C)cn1 | 7.06%
N#Cc1c(SCC(=O)Nc2ccccn2)nsc1SCC(=O)Nc1ccccn1 | 6.08%
COc1cc(C2C(C(=O)c3ccc4c(c3)CC(C)O4)=C(O)C(=O)N2CC2CCCO2)ccc1O (centres unmarked) | 6.15%
COc1ccc(C(=O)NCC(C)NC(=O)c2ccc(OC)cc2)cc1 (centres unmarked) | 0.54%
CCN1CCN(c2cc(C)c3cccc(SC)c3n2)CC1 | -3.74%
Cc1ccc(S(=O)(=O)CCc2ccncc2)cc1 | 0.266%
O=C(NCCN1CCOCC1)c1cc2nc(-c3cccs3)cc(C(F)(F)F)n2n1 | -12.1%
c1ccc(CNc2ccc3ccccc3n2)nc1 | -6.88%
COCc1nc(-c2ccc(-c3ccc(OC)cc3)nc2OC)no1 | -5%
COC(=O)c1cnn2c1NCN(Cc1cccs1)C2 | -1.3%
CCCCOc1ccc(Cc2nnc(S)n2N)cc1 | -1.68%
CC(=O)C1=C(C)NC(SCc2ccccc2)=C(C#N)C1c1ccc(Cl)cc1 (centres unmarked) | 7.12%
COc1cc2c(cc1OC)C(C(=O)NCCC1=CCCCC1)C(c1ccccc1F)N(C)C2=O (centres unmarked) | 3.33%
CCN1C(=O)N/C(=C/c2cc(C)n(-c3ccccc3Br)c2C)C1=O | -9.66%
O=C1[C@@H]2N=C(c3ccccc3)O[C@@H]2C[C@H](CCO)N1Cc1ccccc1 | 0.235%
C=CCNC(=O)C(C)N1C(=O)c2ccccc2C1=O (centres unmarked) | -4.12%
